# According to publication PMC4336329 (PLoS ONE, 2015):
# In all, about 310,000 compounds went through this assay and about 14,000 (4.5%) showed an effect of 50% or more. The effect is printed as a negative number. The list shows a part of the results.
# Molecular target: human ether-à-go-go-related gene (hERG) potassium channel (human, UniProt Q12809)
# Assay: primary screen, population patch clamp on CHO cells stably expressing hERG
# 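Note: peak tail current of the secondary pulse compared with the same well before compound.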
# Chain of human ether-à-go-go-related gene (hERG) potassium channel (Q12809 whole entry, looked up): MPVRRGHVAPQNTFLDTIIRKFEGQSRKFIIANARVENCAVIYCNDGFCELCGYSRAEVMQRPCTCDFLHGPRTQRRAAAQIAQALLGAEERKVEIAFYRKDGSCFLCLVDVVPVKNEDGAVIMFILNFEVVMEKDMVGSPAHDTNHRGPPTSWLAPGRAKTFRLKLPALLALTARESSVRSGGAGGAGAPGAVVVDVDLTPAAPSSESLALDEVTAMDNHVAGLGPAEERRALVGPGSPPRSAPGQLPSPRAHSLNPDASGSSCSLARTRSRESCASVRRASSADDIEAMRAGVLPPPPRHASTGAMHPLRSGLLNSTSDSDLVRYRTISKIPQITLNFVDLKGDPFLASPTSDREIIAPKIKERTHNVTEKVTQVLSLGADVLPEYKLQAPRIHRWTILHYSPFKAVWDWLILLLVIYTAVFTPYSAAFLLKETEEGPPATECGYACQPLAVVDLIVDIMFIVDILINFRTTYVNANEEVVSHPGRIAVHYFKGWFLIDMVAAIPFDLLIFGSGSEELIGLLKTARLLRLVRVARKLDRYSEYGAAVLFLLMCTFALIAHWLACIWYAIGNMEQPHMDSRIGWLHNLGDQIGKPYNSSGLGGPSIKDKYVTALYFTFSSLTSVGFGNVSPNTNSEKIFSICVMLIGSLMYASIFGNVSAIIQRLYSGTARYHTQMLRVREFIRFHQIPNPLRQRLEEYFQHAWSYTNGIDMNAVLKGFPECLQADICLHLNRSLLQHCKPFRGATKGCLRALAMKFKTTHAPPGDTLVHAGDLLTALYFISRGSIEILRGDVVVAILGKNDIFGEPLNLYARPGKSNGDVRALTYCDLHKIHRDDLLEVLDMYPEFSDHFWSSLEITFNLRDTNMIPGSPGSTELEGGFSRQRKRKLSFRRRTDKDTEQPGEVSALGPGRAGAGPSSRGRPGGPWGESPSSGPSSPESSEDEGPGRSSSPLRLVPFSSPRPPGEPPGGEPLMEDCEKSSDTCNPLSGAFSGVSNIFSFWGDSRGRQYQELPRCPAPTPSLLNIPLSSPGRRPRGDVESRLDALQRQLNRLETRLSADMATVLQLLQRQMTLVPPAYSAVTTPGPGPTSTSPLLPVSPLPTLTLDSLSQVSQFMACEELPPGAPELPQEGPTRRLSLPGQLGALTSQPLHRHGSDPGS
row,SMILES,"hERG current change (%, negative = inhibition) at 10uM [%]"
1,O=C(NCCc1cccnc1)C1CCC(=O)N(Cc2cccc(C(F)(F)F)c2)C1 (stereo not shown),-8.64
2,O=C(O)c1ccc(NC(=S)NC2CCCCC2)cc1,13.6
3,CC(C)(C)c1ccc(C2C3=C(CCCC3=O)NC3=C2C(=O)c2ccccc23)cc1 (stereo not shown),-3.27
4,CC(C)CC1c2[nH]c3ccccc3c2CCN1C(=O)C1CCOCC1 (stereo not shown),5.43
5,COc1cc(C(=O)NCC(=O)N/N=C/c2cccc(OC(=O)c3ccco3)c2)cc(OC)c1OC,1.18
6,O=C(O)c1ccc(NS(=O)(=O)c2ccc(N3C(=O)CCC3=O)cc2)cc1,2.04
7,CCOc1nc(NC(C)C)nc(NC(C)C)n1,-2.17
8,C=CCn1c(-c2cccc3ccccc23)n[nH]c1=S,-1.63
9,CCn1nnc(NC(=O)Cc2ccc(Cl)cc2)n1,3.52
10,O=S(=O)(c1ccccc1)c1nc(-c2ccco2)oc1NCc1ccco1,5.67
11,CCCCn1c(SCC(=O)Nc2nnc(C)s2)nnc1-c1ccncc1,26.2
12,CCn1c(SC(C)C(=O)Nc2ccc(N3CCOCC3)cc2)nnc1C1CC1 (stereo not shown),-6.01
13,CCS(=O)(=O)n1nc(-c2ccco2)nc1SC,10.6
14,O=C(COc1ccc(Br)cc1)Nc1ccncc1,1.17
15,COC(=O)c1cn(C(=O)c2ccc(OC)c(OC)c2)c2ccccc12,-5.12
16,N/C(=N\OS(=O)(=O)c1ccc(Cl)cc1)c1cccnc1,2.35
17,COc1cccc(N2CC(NC(=O)C(=O)c3c(C)[nH]c4ccccc34)CC2=O)c1 (stereo not shown),13.2
18,COc1ccc(N2CCN(C(=O)COCc3cc(-c4ccc5c(c4)OCO5)on3)CC2)cc1,2.67
19,Cc1ccc(NC(=O)CSc2n[nH]c(N)n2)cc1S(=O)(=O)N1CCOCC1,-1.98
20,O=C(O)CCC(=O)N1CCC(C(=O)c2cccc(Cl)c2)CC1,21.4
21,COc1ccccc1C(=O)N=C1NC(=O)CC2C(=O)NCCN12 (stereo not shown),3.2
22,COc1cc(/C=N/Nc2ncc(C(F)(F)F)cc2Cl)cc(OC)c1O,-64.8

row,SMILES,"hERG current change (%, negative = inhibition) at 10uM [%]"
1,CS(=O)(=O)c1ccc(-c2csc(-c3cccnc3)n2)cc1,-30.1
2,Cc1cccc(C)c1OCC(=O)Nc1ccccc1N1CCCCC1,12.7
3,COc1ccc(NC(=O)Cc2ccsc2)cc1S(=O)(=O)N1CCCCC1,-25.8
4,CCCn1c(SCC(=O)Nc2cc(Cl)ccc2Cl)n[nH]c1=O,5.11
5,COc1ccccc1-c1cc(C(F)(F)F)nc(S(=O)(=O)CCCC(=O)NCc2ccc(F)cc2)n1,-34.7
6,O=c1[nH]cc(S(=O)(=O)N2CCCc3ccccc32)c(=O)[nH]1,-8.39
7,CCOc1ccc2c(c1)c(C(C)=O)c(C)n2-c1ccccc1,-19.4
8,Cc1nnc(NC(=O)C2CC(=O)N(c3ccc4c(c3)OCCO4)C2)s1 (stereo not shown),-1.13
9,CCc1c(C)nc2cc(-c3cccc(Br)c3)[nH]n2c1=O,-3.6
10,COc1cc(-c2noc(C)c2C#Cc2nccn2C)cc(OC)c1OC,-53.4
11,Cc1ccc(S(=O)(=O)NNC(=O)c2ccc(NC(=O)C3CC3)cc2)cc1,11.6
12,Cc1ccc(NC2CCCN(C(=O)CCN3CCOCC3)C2)cc1C (stereo not shown),16.1
13,CCc1ccc(NCCC(=O)c2ccc(Cl)cc2)cc1,10.2
14,FC(F)(F)c1cc(-c2ccccc2)nc(N2CCCCC2)n1,19.1
15,O=C(CCCc1c[nH]c2ccccc12)NCC1COc2ccccc2O1 (stereo not shown),3.31
16,C/C(=N\N=C(/N)SC1CC(=O)N(c2ccc(Cl)cc2)C1=O)c1cccs1 (stereo not shown),2.58
17,CCn1nc2cc(C(=O)NCc3cc(C(F)(F)F)cc(C(F)(F)F)c3)ccc2c1OC,12.9
18,COc1ccc(CCNC(=O)Cn2cnc3c(nnn3Cc3ccc(C)cc3)c2=O)cc1OC,15.4
19,Cc1cc(OC(F)F)ccc1NC(=S)NCCc1ccccc1,-3.61
20,CC(C)Cc1cc(C(=O)N2CCC(N3CCC(C(=O)N4CCOCC4)CC3)CC2)n[nH]1,-18.6
21,COc1cccc(CNc2ncc(C(=O)Nc3cc(OC)c(OC)c(OC)c3)c(C)n2)c1,14
22,COc1ccc2oc(C(=O)OCC(=O)Nc3cc(S(=O)(=O)N4CCOCC4)ccc3C)c(C)c2c1,11.6

row,SMILES,"hERG current change (%, negative = inhibition) at 10uM [%]"
1,O=C(c1ccc(F)cc1)C1CCN(C(=O)N2CCOCC2)CC1,-7.19
2,O=C(O)c1ccccc1-c1nc2cc(Cl)ccc2c(=O)n1O,26.2
3,CC(C)OC(=O)NCCOC(=O)Nc1cccc(Cl)c1,9.33
4,COc1ccc(CC(=O)N/N=C(\C)c2ccc(Br)s2)cc1,14.5
5,COc1cc2cc3c(N)c(C(=O)NCc4ccco4)sc3nc2cc1OC,-25.5
6,CCN1CCN(C(c2ccccc2)c2nnnn2Cc2ccc(OC)cc2)CC1.Cl (stereo not shown),10.7
7,CCCn1c(SCC(=O)O)nc2ccccc21,3.15
8,O=C(c1ccccc1NS(=O)(=O)c1ccccc1)N1CCCCCC1,16.3
9,O=C(c1ccccc1)c1c(O)cc(-c2ccccc2)oc1=O,12.1
10,CCOC(=O)COn1c(=O)c(-c2ccc(C)cc2)[n+]([O-])c2ccccc21,20.1
11,CCC(=O)Nc1ccc(NC(=O)c2ccc3ccccc3c2)cc1,20.3
12,O=C(CCN1C(=O)C2CC=CCC2C1=O)Nc1nccs1 (stereo not shown),-3.6
13,COc1ccc(OC)c(-n2c(CN3CCC(C(N)=O)CC3)nc3ccccc3c2=O)c1,-0.126
14,COc1ccc(C(=O)N2CCCC(N3CCN(c4ccccc4OC)CC3)C2)c(OC)n1 (stereo not shown),4.8
15,CCOC(=O)COc1nc2c(c(-c3ccco3)c1C#N)CCc1ccccc1-2,7.82
16,Cc1cc(N2CCOCC2)nc2ccc(NC(=O)CCC(=O)N3CCN(c4ccccc4)CC3)cc12,-18.3
17,CC1CCN(S(=O)(=O)c2cccc(C(=O)N3CCN(c4ccc(F)cc4)CC3)c2)CC1,-65.4
18,Cc1ccc(C)c(NC2=C(Cl)C(=O)OC2OC(=O)c2ccco2)c1 (stereo not shown),-23.2
19,COc1ccc(/C=C/C(=O)NC(=S)NNC(=O)c2cc(OC)c(OC)c(OC)c2)cc1OC,0.258
20,O=C1N/C(=N/N=C/c2ccccc2)SC1(c1ccccc1)c1ccccc1,4.87
21,O=C(O)c1ccc(/C=N/NC(=S)NCCN2CCOCC2)cc1,12.3
22,CCCC(=O)Nc1c2c(nn1-c1ccc(F)cc1)CS(=O)(=O)C2,3.76

row,SMILES,"hERG current change (%, negative = inhibition) at 10uM [%]"
1,CC(=O)OC(C(=O)NC1CCCCC1)c1ccncc1 (stereo not shown),-11.7
2,COc1cc(-c2noc(C)c2C#Cc2ccsc2)cc(OC)c1OC,10.8
3,O=C(N/N=C/c1ccc(Cl)cc1Cl)Nc1ccccc1,25
4,Cn1c(=O)n(CCc2ccccc2)c(=O)c2c1ncn2Cc1ccccc1,0.416
5,C=CCOc1c2ccc(C(=O)NCCc3ccc(C)cc3)cc2nn1C,-2.67
6,O=C1NC(=O)C2(Cc3ccccc3N3CCCC32)C(=O)N1Cc1ccccc1 (stereo not shown),1.61
7,CC(=NC(C)C)C1=C(O)CCC1=O,7.34
8,O=C(NNC(=O)C1CCC1)c1ccccc1,0.231
9,CCOC(=O)c1oc2cc(OC(C)=O)ccc2c(=O)c1-c1ccc(OC)c(OC)c1,-6.73
10,CCCCc1ccc(Nc2nc(N3CCOCC3)nc(N3CCOCC3)n2)cc1.Cl,12.7
11,CCOC(=O)CNC(=O)CSc1nnc(-c2ccco2)n1N,15.8
12,CC(C)OC(=O)C1C(=O)CC(C)(O)C(C(=O)OC(C)C)C1c1cccc(O)c1 (stereo not shown),-15.7
13,COc1cc2ccccc2cc1C(=O)NCCCN1CCOCC1,-5.9
14,OCC1(Cc2cccc(Cl)c2)CCCN(Cc2ccc(F)c(F)c2)C1 (stereo not shown),-51.2
15,Cc1ccccc1OCCN1C(=O)NC2(CCc3ccccc32)C1=O (stereo not shown),-20.2
16,CC(=O)c1ccc(NC(=O)c2ccc(COc3ccccc3[N+](=O)[O-])o2)cc1,-8.46
17,CCC12CN3CCN(CC(C3)/C1=N\O)C2,-0.612
18,COc1ccc(/C=C/C(=O)OCc2nc3ccccc3c(=O)[nH]2)c(OC)c1,-7.69
19,COc1ccc2c(c1)c(CC(=O)Nc1ccc(C)cc1)c(C)n2C(=O)c1ccc(Cl)cc1,-20.4
20,N#C/C(=C\c1c(Cl)cccc1Cl)c1nn(-c2ccccc2)c(-n2cccc2)c1C#N,9.9
21,CCOc1ccc(NS(=O)(=O)c2ccc3[nH]cc(C(=O)N(CC)CC)c(=O)c3c2)cc1,-36.1
22,CC(C)(C(=O)N[C@H](CO)c1ccccc1)C(=O)N[C@H](CO)c1ccccc1,3.12
